Experimental data published in the supplement of paper PMC3334620.
Whole data set: some 33,000 sequences, median “E-score (-0.5 to 0.5)” near -0.017, cut for the highest 2% near 0.3. The list shows a part of the results.

Target: T1, Sut1 (UniProt P53032)
T1 sequence: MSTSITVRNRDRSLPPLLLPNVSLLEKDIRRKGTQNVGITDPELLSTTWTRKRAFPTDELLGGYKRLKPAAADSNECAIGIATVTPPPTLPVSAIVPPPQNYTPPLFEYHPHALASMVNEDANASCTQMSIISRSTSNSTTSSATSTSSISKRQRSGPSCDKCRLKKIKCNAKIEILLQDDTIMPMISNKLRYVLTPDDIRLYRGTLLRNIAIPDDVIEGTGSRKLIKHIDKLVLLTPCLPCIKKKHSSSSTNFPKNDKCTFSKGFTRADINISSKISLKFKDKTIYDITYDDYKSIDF
Test: PBM E-score (8-mer binding enrichment) (E-score (-0.5 to 0.5)); higher = stronger / more preferred TF binding; most listed sequences are background and not binding sites
Details: protein concentration: 200 nM; construct: GST-full length
Procedure, shortened: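 E-scores (a modified Wilcoxon-Mann-Whitney statistic) were assigned by the Universal PBM Analysis Suite to every ungapped eight-base word pooled with its reverse complement. The input came from universal all-10-mer Agilent arrays made double-stranded by primer extension and probed with GST-tagged yeast transcription factors at about 100-200 nM. Fluorescent anti-GST detected bound protein, and masliner normalised the scans.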

| Sequence | PBM E-score |
| --- | --- |
| CATCTACG | -0.0146 |
| AAGAGATC | -0.168 |
| AAACTCGC | 0.0303 |
| AGCCCCAC | -0.101 |
| CCGCTTCC | 0.0265 |
| ATTTACCA | 0.218 |
| ACAGTTGC | -0.0853 |
| CCACTTAA | 0.165 |
| AGGTGCTC | -0.33 |
| AACCGGAG | 0.43 |
| GGGGAGCA | -0.344 |
| CTGCAAAG | -0.243 |
| GCCGCCAC | -0.352 |
| CTATCCTA | 0.00389 |
| CGGTAATC | 0.0375 |
| AGCATCCA | -0.127 |
| GCAAATCC | 0.138 |
| CTCCACAC | -0.141 |
| ATGGTTAG | 0.0916 |
| ACAACGTG | -0.105 |
| CTGAAGTA | 0.086 |
| CAGCTAAG | -0.271 |
| CGGCAACG | -0.0534 |
| GGCTAGAC | -0.106 |
| CTGCTTAA | 0.00411 |

| Sequence | PBM E-score |
| --- | --- |
| CTGCCCAG | -0.222 |
| CCAGTTAG | -0.0225 |
| CCACCGCC | -0.247 |
| GAGACTCA | 0.0442 |
| ATTTGGCA | -0.0085 |
| CCATTGCA | -0.0889 |
| ACCGACCG | -0.0166 |
| AGTTCTAC | -0.159 |
| CAATTGAC | 0.0698 |
| CTCGAACA | 0.00064 |
| ACTTACTG | 0.102 |
| CCGTAGCC | -0.315 |
| ACTCATGG | -0.11 |
| ATTTCTTC | 0.259 |
| AGGGGCTG | -0.147 |
| GGCAACCA | -0.0149 |
| AGATGAAG | 0.03 |
| GCCTGTTA | -0.172 |
| ATGATCAC | -0.00298 |
| AAACCTAC | 0.156 |
| ACCCGCAG | 0.0584 |
| CACCGTGA | -0.0886 |
| ACGCCGCT | -0.0911 |
| GGTCATTA | -0.137 |
| AACATATT | 0.249 |

| Sequence | PBM E-score |
| --- | --- |
| GATCTGCA | -0.127 |
| TAATTTAA | 0.283 |
| AGAACCAT | 0.12 |
| CATAGTCC | 0.217 |
| TCTTCTAA | 0.188 |
| ACGCAAGC | 0.0115 |
| CTTCTCTA | -0.0797 |
| AATACCTC | 0.0189 |
| AGCAGTTA | 0.145 |
| AAGCCGCC | -0.169 |
| AGAGTACC | -0.0251 |
| ACTAAGGG | -0.143 |
| CTCAAGAA | 0.0287 |
| CCACTGCC | -0.12 |
| GGATGAAA | 0.111 |
| CTTCTAGC | -0.0899 |
| CATGGAAC | -0.41 |
| CGGCGTAC | 0.023 |
| GCATTAAA | 0.0763 |
| AACGCAAA | 0.0936 |
| ATAACGCG | -0.0533 |
| CCGAAGGC | 0.0334 |
| ACTACTCG | 0.197 |
| AGATGGCC | -0.0974 |
| GATAGCGC | -0.13 |

| Sequence | PBM E-score |
| --- | --- |
| AACACCAT | -0.0541 |
| ACAAAAAT | 0.272 |
| ATCTTAGC | 0.00142 |
| AGAAGTGA | 0.0327 |
| CAATTCTG | -0.101 |
| TGCTAAAA | -0.0228 |
| CGCGACCC | -0.119 |
| TCGACAGA | -0.158 |
| AATGGTCA | 0.0343 |
| GCTGAATA | 0.0643 |
| CCGATGGC | -0.0431 |
| CACTATCC | -0.00527 |
| AAAAAAGC | 0.086 |
| GATCGGCA | -0.151 |
| GATTGCTA | -0.107 |
| AGCCCTTG | -0.132 |
| TAGATCGA | 0.0111 |
| GGGAGAAC | -0.0542 |
| TCAGTTCA | 0.00153 |
| ATTGTTTG | 0.0639 |
| ATGGGCAA | -0.06 |
| TGGGCACA | -0.176 |
| AAGGTAAC | 0.0861 |
| ACTTGCAA | 0.0929 |
| AACCCTGT | -0.226 |

| Sequence | PBM E-score |
| --- | --- |
| GTGTGAAC | -0.2 |
| AGGATACT | -0.0531 |
| ACGCATTA | -0.0206 |
| ACCAGCAT | -0.102 |
| AGAATAGA | 0.0525 |
| ATTTAGGG | 0.0972 |
| ACATCAGG | -0.0576 |
| CCGTCACC | -0.131 |
| ATGCCATA | 0.0321 |
| AACGTTCT | 0.0497 |
| AGAGGGCT | -0.35 |
| ACGGAAGT | 0.106 |
| CGGATGTC | 0.0637 |
| CAGAGTTA | -0.148 |
| CCACCCGA | -0.172 |
| ACGATTGA | 0.0407 |
| CGACCGTA | -0.187 |
| ACTGCAGG | -0.18 |
| GGGTTCCA | -0.0414 |
| CTTCAAGC | -0.115 |
| GTGCTATA | 0.121 |
| GAGCCCTC | -0.299 |
| AGGCATAT | -0.0272 |
| GGTATACA | -0.12 |
| CCGGCCCG | 0.0526 |

| Sequence | PBM E-score |
| --- | --- |
| ATAGGAAC | 0.103 |
| ATACCTTG | 0.0477 |
| AAACAGAG | -0.108 |
| CGTACCCA | -0.179 |
| AGAATCTC | 0.0495 |
| TACGTTAA | 0.129 |
| GTTGGAAA | 0.0298 |
| ATTACGGC | -0.0212 |
| GCTCATTA | -0.029 |
| CATTTGCG | 0.0954 |
| ATCCCTCA | -0.19 |
| AATACTCT | 0.179 |
| CTAGCCAA | 0.137 |
| AGTGCGAA | 0.0436 |
| AGAAGACT | -0.0946 |
| ACGTCCAG | -0.197 |
| ATAATTTA | 0.337 |
| CGCTTGTA | 0.0626 |
| GAGTCACC | -0.0467 |
| GCCGGCAA | 0.144 |
| ACCTAGGA | -0.0318 |
| CTATTGTA | 0.255 |
| AAAGGGAG | -0.254 |
| ATATCTTA | 0.281 |
| ACACTGGG | -0.171 |

| Sequence | PBM E-score |
| --- | --- |
| AACTTACT | 0.0273 |
| GGAATGCC | -0.109 |
| ACGCCAGG | -0.185 |
| CAGCTAAC | -0.21 |
| CCGATGTC | 0.207 |
| TCATCTCA | 0.0502 |
| AGCACCAG | -0.153 |
| TAACGAGA | 0.139 |
| GCACCACA | -0.198 |
| CCGCCTCC | -0.0309 |
| AATAGGTA | 0.214 |
| AAGTTCTA | 0.0927 |
| CGACCTTA | -0.0103 |
| CGGTGGCA | -0.223 |
| TTATTGAA | 0.183 |
| AAAACCAT | 0.228 |
| AGATGTGC | -0.0367 |
| ATTCATGG | 0.135 |
| AGCTGTAC | -0.122 |
| GCCGCTAA | 0.0629 |
| CGCCAAGA | -0.282 |
| ATACATGA | 0.168 |
